Measured values reported in ChEMBL document CHEMBL4888484, “Replenishing the malaria drug discovery pipeline: Screening and hit evaluation of the MMV Hit Generation Library 1 (HGL1) against asexual blood stage Plasmodium falciparum ,using a nano luciferase reporter read-out” (2022).
The whole screen tested about 4,800 compounds, of which about 420 (8.8%) showed an effect of 50% or more. This is one part of the list.

These compounds were tested on Plasmodium falciparum (assay: Confirmatory screen in NF54 nanoGlo assay, in single point, at 2uM, 72h). Settings: timepoint 72 hour.
Type: functional, Erythrocyte
Cc1nn(C)cc1C(=O)N1CCN(c2nncc3ccccc23)CC1 was tested, and the “% Inhibition” value was -18%. For Cn1ccnc1[C@@H]1CCCN1Cc1nccn1Cc1ccccc1, the “% Inhibition” value was 45%. For COc1ccccc1C(=O)N(Cc1cccs1)c1ccc(C)c(Cl)c1, the “% Inhibition” value was -2%. Cc1ccccc1CNC(=O)c1ccccc1NC(=O)C1CC=CCC1C(=O)O (stereo unspecified) was tested, and the “% Inhibition” value was 0%. For c1csc(CNC2CCCCCCC2)c1, the “% Inhibition” value was -1%. For Cc1cc2occ(CC(=O)N[C@@H](Cc3c[nH]c4cc(F)ccc34)C(=O)O)c2cc1C, the “% Inhibition” value was -1%. In the case of CC1(C)Oc2ccc(NC(=O)c3ccco3)cc2NC1=O, the “% Inhibition” value was -2%. For CCN1CC[C@H](NCc2ccc(OCCN3CCOCC3)c(Cl)c2)C1=O, the “% Inhibition” value was 2%. For C[C@H]1CNCCN1C(=O)c1coc2ccccc12, the “% Inhibition” value was -4%. In the case of COc1ccc2cc3n(c2c1)C[C@@](C)(C(=O)NC1CCCC1)N(Cc1ccc(F)cc1)C3=O, the “% Inhibition” value was 16%. CCN(CC)C(=O)N1CCC[C@@H]1CCc1ncc(C)n1C(C)C was tested, and the “% Inhibition” value was 5%. For O=C1CCc2cc(NC(=O)[C@@H]3Cc4ccccc4C(=O)O3)ccc2N1, the “% Inhibition” value was -4%. With Cc1sc(NC(=O)c2ccccc2Cl)nc1-c1ccc2c(c1)NC(=O)[C@H](C)O2 the “% Inhibition” value was 4%. COC(=O)c1cc(Cl)c(Cl)cc1N was tested, and the “% Inhibition” value was -6%. For Cc1c(S(=O)(=O)N2CC3CN(c4ccccc4)CC3C2)cnn1C (stereo unspecified), the “% Inhibition” value was 5%. For COc1cccc2c1OCC(=O)N([C@@H](C)c1ccccc1)C2, the “% Inhibition” value was -8%. For CC(C)(C)CC(C)(C)NC(=O)c1ccc2nc(N3C(=O)CCC3=O)sc2c1, the “% Inhibition” value was -1%. For Cc1c(C)n(CCc2c[nH]c3ccccc23)ccc1=O, the “% Inhibition” value was 2%. In the case of O=C(Cc1ccc(N(Cc2cccc(F)c2)C(=O)C2CCCC2)cc1)NCCN1CCCCC1, the “% Inhibition” value was 54%. For CC1(C)c2ccccc2CCN1C(=O)CCc1ncc(-c2ccccc2)o1, the “% Inhibition” value was -4%. In the case of COc1cc2c(cc1OC)CN(C(=O)c1cccc(N3C(=O)C(C)(C)CS3(=O)=O)c1)CC2, the “% Inhibition” value was -3%. For O=C(NCCN1CCCCC1)[C@H]1CCCN(c2nc3cccnc3n(Cc3ccccc3)c2=O)C1, the “% Inhibition” value was -9%. Clc1ccc(COc2ccc(Cl)cc2CNCCCn2ccnc2)c(Cl)c1 was tested, and the “% Inhibition” value was 95%. With O=C(c1ccc(O)cc1)C1CCN(C[C@H](O)C(F)(F)F)CC1 the “% Inhibition” value was 5%. Cc1sc2ncnc(N3CCCCC3)c2c1C(=O)NCc1cccc(Cl)c1 was tested, and the “% Inhibition” value was 0%. For CN=C(NCC(=O)N(C)CC(F)(F)F)NCc1ccc(C)cc1, the “% Inhibition” value was 7%. COCCCNC(=O)C(=O)Nc1ccnn1C1CCCCC1 was tested, and the “% Inhibition” value was 3%. Cc1nn(C)c(Cl)c1CNCc1ccc(N2CCCCC2)nc1 was tested, and the “% Inhibition” value was -10%. In the case of COc1cccc(CNCCN2CCOCC2)c1OCc1ccc(Cl)cc1Cl, the “% Inhibition” value was 7%. With Cc1ccc(Nc2c(-c3cc4ccccc4cc3O)nc3ncccn23)cc1 the “% Inhibition” value was -2%. In the case of CC(C)CC1NC2(C(=O)N(Cc3ccccc3F)c3ccccc32)C2C(=O)N(c3cccc(Cl)c3)C(=O)C12 (stereo unspecified), the “% Inhibition” value was -5%. For Cc1cc(N)cc(Br)c1N, the “% Inhibition” value was 4%. In the case of COc1ccc(C(NC(=O)NCC2CCCO2)C(Cl)(Cl)Cl)cc1F (stereo unspecified), the “% Inhibition” value was -8%. For Cc1nn(C(C)(C)C)c2nc(C3CC3)cc(C(=O)N(C)c3ccccc3)c12, the “% Inhibition” value was 81%. With COc1cccc(C(=O)N2CCN(c3cc(N4CCOCC4)nc(C)n3)CC2)c1 the “% Inhibition” value was -2%. For COc1cccc(-c2cc3c(N4CCC(C(=O)NC[C@H]5CCCO5)CC4)nccn3n2)c1, the “% Inhibition” value was 4%. C[C@H](Nc1cccc2c1CCO2)c1cccnc1 was tested, and the “% Inhibition” value was 6%. With O=C(CCOCC(F)(F)F)Nc1ccc2c(c1)C(=O)NC2 the “% Inhibition” value was -6%. In the case of NC(=O)c1c(Cl)cccc1NCc1noc(Cc2ccccc2)n1, the “% Inhibition” value was -4%. c1ccc(-c2nnc3nc(N4CCOCC4)nc(N4CCOCC4)n23)cc1 was tested, and the “% Inhibition” value was 7%. With Cc1cc(C)c(S(=O)(=O)Cc2ccccc2)c(O)n1 the “% Inhibition” value was 4%. With COc1ccccc1N(Cc1ccccc1)C1=NC(=[N+](Cc2ccccc2)c2ccccc2OC)c2ccccc21 the “% Inhibition” value was 74%. Cc1nc2ccccc2cc1OCc1ccc(F)cc1 was tested, and the “% Inhibition” value was 3%. With N#Cc1cc(O)c(-c2c(O)n[nH]c2-c2ccccc2)cc1C#N the “% Inhibition” value was 3%. In the case of O=C(NCc1ccccn1)[C@H]1CN(S(=O)(=O)c2cccnc2)CC12CCCCC2, the “% Inhibition” value was 10%. In the case of COc1ccccc1NC(=O)c1cnn2c3c(cnc12)CCCCC3, the “% Inhibition” value was -4%. In the case of O=C(Cc1nnc2ccc(C(=O)Nc3ccccc3)cn12)Nc1ccc(F)cc1, the “% Inhibition” value was 0%. In the case of O=C(Nc1nn(Cc2ccccc2)cc1Cl)c1cc(-c2ccc(OC(F)F)cc2)[nH]n1, the “% Inhibition” value was 4%. With CN1CCN(c2c(F)cc3c(=O)c(C(=O)O)cn(-c4ccc(OC5CC6CCC5(C)C6(C)C)c(F)c4)c3c2F)CC1 (stereo unspecified) the “% Inhibition” value was 2%. For CCN1C(=O)C(=O)N(CN2CCc3ccccc3C2)C1=O, the “% Inhibition” value was -4%. In the case of Cc1cc(CN2C(=O)N[C@@]3(CCCCc4ccccc43)C2=O)no1, the “% Inhibition” value was -6%. With COC(=O)[C@H](NC(=O)CN1CCOc2ccc(Cl)cc21)c1ccc(O)cc1 the “% Inhibition” value was -4%. For Cc1cc(C)cc(CON=C(N)CCO)c1, the “% Inhibition” value was -20%. In the case of C[C@@H](CCNS(=O)(=O)c1c(Cl)cc(F)cc1Br)CC(=O)O, the “% Inhibition” value was 10%. With COC[C@@H]1CCCN1c1ccc2c(c1)CNCC(=O)N1CC[C@@H](CC(=O)NCCN3CCOCC3)[C@@H](/C=C/CO2)C1 the “% Inhibition” value was -13%. CCOc1cc(CNCCOC)ccc1O was tested, and the “% Inhibition” value was 0%. In the case of O=C(Nc1ccc(N2CCOCC2)c(F)c1)OCc1ccccc1, the “% Inhibition” value was -8%. In the case of CCc1cccc(NC(=O)Cn2ccc3ccc(-c4nnc(C)o4)cc32)c1, the “% Inhibition” value was 81%. For CCOCCC1(CNC(=O)c2cc(C)n[nH]2)CCC1, the “% Inhibition” value was -1%. For Cc1cc(-c2cc(O)cc(CC[C@H]3CCCCN3)c2)ccn1, the “% Inhibition” value was 79%. With COc1ccc([C@@H]2COc3ccccc3C(=O)N2)cc1 the “% Inhibition” value was 0%. For COC(=O)[C@H](C#N)c1ccc(C#N)cn1, the “% Inhibition” value was 5%. COc1cccc(NC(=O)[C@H](Cc2ccccc2)NC(=O)c2cccnc2)c1 was tested, and the “% Inhibition” value was -13%. For O=C(Nc1cccnc1)c1ccc(-c2ccc(Cl)c(Cl)c2)o1, the “% Inhibition” value was 91%. In the case of Cn1nncc1C(=O)Nc1ccc(Br)c(C(F)(F)F)c1, the “% Inhibition” value was -1%. CN(C(=O)c1ccc(F)cc1)[C@H]1CCOC1 was tested, and the “% Inhibition” value was -15%.
